We go through six molecules from publication PMC4870812.

By UniProt entry, the sequences of proteins in these tests, tags left out.
UniProt Q8TDY2: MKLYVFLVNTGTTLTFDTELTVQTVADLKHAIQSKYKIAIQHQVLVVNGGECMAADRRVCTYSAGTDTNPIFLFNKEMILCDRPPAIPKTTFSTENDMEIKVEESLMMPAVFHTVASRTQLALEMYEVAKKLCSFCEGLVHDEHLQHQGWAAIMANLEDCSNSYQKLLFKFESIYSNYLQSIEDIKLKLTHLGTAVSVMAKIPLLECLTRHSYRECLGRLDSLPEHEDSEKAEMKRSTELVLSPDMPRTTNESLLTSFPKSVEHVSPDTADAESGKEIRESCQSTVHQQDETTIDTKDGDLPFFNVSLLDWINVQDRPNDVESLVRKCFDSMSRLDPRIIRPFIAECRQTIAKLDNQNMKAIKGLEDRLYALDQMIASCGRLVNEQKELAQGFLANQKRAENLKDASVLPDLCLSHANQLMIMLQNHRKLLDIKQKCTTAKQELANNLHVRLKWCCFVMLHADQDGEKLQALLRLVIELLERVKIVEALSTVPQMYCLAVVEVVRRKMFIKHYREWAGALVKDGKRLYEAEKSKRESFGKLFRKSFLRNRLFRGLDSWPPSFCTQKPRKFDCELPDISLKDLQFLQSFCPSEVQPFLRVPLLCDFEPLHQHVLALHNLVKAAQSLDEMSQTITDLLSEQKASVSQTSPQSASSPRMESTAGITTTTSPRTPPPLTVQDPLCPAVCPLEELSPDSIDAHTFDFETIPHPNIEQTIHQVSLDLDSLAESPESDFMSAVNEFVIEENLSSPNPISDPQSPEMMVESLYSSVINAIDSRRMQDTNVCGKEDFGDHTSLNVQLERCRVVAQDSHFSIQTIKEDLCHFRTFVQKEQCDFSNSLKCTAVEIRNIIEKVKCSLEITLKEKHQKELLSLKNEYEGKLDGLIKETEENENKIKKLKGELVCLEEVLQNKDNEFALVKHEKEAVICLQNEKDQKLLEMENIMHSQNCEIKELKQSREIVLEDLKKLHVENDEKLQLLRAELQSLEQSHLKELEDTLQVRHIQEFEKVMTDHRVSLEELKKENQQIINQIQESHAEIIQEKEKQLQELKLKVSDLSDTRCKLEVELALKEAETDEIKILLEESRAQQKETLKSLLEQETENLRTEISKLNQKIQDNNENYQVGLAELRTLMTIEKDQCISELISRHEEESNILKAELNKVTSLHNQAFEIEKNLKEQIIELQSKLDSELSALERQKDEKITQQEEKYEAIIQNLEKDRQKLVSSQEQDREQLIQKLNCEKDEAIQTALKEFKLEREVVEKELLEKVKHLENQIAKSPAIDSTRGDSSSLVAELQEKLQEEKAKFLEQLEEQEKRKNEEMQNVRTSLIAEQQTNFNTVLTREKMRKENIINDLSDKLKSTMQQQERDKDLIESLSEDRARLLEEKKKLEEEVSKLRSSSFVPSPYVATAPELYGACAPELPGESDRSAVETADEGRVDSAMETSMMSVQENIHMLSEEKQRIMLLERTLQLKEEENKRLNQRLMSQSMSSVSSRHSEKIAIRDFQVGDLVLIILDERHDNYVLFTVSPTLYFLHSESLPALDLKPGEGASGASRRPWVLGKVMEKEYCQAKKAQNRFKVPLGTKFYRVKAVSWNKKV

Results are given in words; binding and its absence hold for the method and conditions named. In cells and extracts the contact can be indirect. Some results given as binding are weak or reduced against the parent protein; the word gives no strength. Tags and fused reporters may be left off the sequences shown.

Assay [1] addresses T1, SMCR8-GFP (human) (UniProt Q8TEV9).
T1 sequence: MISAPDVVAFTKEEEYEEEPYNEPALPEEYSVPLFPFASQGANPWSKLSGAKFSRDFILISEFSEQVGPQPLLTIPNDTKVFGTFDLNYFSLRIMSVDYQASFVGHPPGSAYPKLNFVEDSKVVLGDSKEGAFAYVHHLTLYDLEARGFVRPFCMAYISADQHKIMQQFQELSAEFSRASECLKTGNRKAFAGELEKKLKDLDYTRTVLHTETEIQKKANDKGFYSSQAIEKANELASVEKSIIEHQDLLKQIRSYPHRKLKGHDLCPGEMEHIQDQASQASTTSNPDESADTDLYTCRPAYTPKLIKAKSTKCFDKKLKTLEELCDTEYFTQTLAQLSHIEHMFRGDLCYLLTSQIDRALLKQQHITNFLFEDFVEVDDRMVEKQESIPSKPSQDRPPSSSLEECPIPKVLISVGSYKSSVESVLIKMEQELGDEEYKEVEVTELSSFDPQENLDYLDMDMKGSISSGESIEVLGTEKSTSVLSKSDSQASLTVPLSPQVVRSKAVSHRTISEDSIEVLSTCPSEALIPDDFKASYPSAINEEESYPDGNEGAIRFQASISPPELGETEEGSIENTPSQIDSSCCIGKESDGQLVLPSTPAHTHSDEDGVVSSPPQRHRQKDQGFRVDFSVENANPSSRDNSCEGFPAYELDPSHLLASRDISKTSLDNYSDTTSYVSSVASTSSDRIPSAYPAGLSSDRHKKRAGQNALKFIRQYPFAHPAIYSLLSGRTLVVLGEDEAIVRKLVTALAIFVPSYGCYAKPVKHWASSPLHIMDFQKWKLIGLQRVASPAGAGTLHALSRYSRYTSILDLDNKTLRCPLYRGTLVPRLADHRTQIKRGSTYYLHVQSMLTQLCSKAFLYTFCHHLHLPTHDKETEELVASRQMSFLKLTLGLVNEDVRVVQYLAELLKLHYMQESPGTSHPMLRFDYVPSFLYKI
The experiment in a line: co-IP; HEK293T transfected with FLAG-FIP200, SMCR8 and C9orf72, with or without WDR41; lysed 40 h after transfection; anti-GFP immunoprecipitation; Western blot (Fig. 4a).

Assay [2] deals with T1, SMCR8-GFP (human). The experiment in a line: co-IP; HEK293T transfected with FLAG-FIP200 and SMCR8 only; lysed 40 h after transfection; anti-GFP immunoprecipitation; Western blot (Fig. 4a). On the technique in general: In western blotting, separated proteins are transferred to a membrane and probed.
The target in the next assay is FLAG-FIP200 (human) (UniProt Q8TDY2). As to the kind of experiment: co-IP; HEK293T transfected as indicated with FLAG-FIP200 and C9orf72, SMCR8, WDR41; anti-FLAG immunoprecipitation; Western blot (Fig. 4b).
In assay [3] the target is T2, GFP-tagged human C9orf72 isoform I (GFP-C9-L), expressed in HEK293T cells (human) (UniProt Q96LT7).
T2 sequence: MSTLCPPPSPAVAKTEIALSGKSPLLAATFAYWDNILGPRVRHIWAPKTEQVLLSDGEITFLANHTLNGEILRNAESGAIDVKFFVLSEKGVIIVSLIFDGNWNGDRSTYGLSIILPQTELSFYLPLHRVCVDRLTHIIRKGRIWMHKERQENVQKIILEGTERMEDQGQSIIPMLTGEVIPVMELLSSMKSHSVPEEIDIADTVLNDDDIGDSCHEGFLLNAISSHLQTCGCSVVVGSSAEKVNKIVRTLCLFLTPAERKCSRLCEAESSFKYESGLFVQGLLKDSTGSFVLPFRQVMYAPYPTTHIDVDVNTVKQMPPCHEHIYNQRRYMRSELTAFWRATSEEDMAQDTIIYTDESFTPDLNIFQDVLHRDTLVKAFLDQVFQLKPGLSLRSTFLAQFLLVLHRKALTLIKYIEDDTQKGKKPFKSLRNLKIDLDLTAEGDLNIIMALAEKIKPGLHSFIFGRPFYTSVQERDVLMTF
As to the kind of experiment: co-IP; HEK293T, only the two proteins co-expressed; lysis in 50 mM Tris pH 8.0, 150 mM NaCl, 1 % Triton X-100, 0.1 % deoxycholic acid; GFP-Trap (anti-GFP) beads 2-3 h at 4 °C; Western blot (Fig. 2a and the lanes of Fig. 2b, c without the third protein).

Assay [4] has as its target T3, GFP-tagged human C9orf72 isoform II (GFP-C9-S) (human) (UniProt Q96LT7).
T3 sequence: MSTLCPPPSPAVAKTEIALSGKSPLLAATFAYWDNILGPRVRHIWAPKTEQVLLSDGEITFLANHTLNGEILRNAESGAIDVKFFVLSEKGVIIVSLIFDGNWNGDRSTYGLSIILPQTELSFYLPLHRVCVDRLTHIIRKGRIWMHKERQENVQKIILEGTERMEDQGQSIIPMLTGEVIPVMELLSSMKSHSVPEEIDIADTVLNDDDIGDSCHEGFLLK
The assay is described as above.

In assay [5] the target is C9orf72/SMCR8/WDR41 (co-expressed, precipitated with anti-GFP; Fig. 4c, d) (human) (UniProt Q96LT7+Q8TEV9+Q9HAD4). The experiment in a line: co-IP; HEK293T transfected as indicated with C9orf72/SMCR8/WDR41 and ATG101 or ATG13; anti-GFP immunoprecipitation; Western blot (Fig. 4c, d).

As for “FLAG-FIP200 (from UniProt Q8TDY2 1-1594)”, the binding entry with SMCR8-GFP (human) [1] is “binds”; with SMCR8-GFP (human) [2] it was “binds weakly”.

B1: WDR41 (construct of Fig. 4b, tag not told in the text) (protein, UniProt Q9HAD4 1-459)
chain: MLRWLIGGGREPQGLAEKSPLQTIGEEQTQNPYTELLVLKAHHDIVRFLVQLDDYRFASAGDDGIVVVWNAQTGEKLLELNGHTQKITAIITFPSLESCEEKNQLILTASADRTVIVWDGDTTRQVQRISCFQSTVKCLTVLQRLDVWLSGGNDLCVWNRKLDLLCKTSHLSDTGISALVEIPKNCVVAAVGKELIIFRLVAPTEGSLEWDILEVKRLLDHQDNILSLINVNDLSFVTGSHVGELIIWDALDWTMQAYERNFWDPSPQLDTQQEIKLCQKSNDISIHHFTCDEENVFAAVGRGLYVYSLQMKRVIACQKTAHDSNVLHVARLPNRQLISCSEDGSVRIWELREKQQLAAEPVPTGFFNMWGFGRVSKQASQPVKKQQENATSCSLELIGDLIGHSSSVEMFLYFEDHGLVTCSADHLIILWKNGERESGLRSLRLFQKLEENGDLYLAV
With B1, in the assay with FLAG-FIP200 (human), the binding entry is given as “binds”.

B2: SMCR8 (construct of Fig. 4b, tag not told in the text) (protein, UniProt Q8TEV9 1-937)
chain: T1 sequence
With B2, in the assay with FLAG-FIP200 (human), the binding result is “binds”.

B3: SMCR8-myc (protein, UniProt Q8TEV9 1-937)
chain: T1 sequence
B3: the binding result in assay [3] was “binds”; in assay [4], “no binding”.

B4: C9orf72 (construct of Fig. 4b, tag not told in the text) (protein, UniProt Q96LT7 1-481)
chain: T2 sequence
B4: the binding result in the assay with FLAG-FIP200 (human) is “binds”.

B5: FLAG-ATG101 (protein, UniProt Q9BSB4 1-218)
chain: MNCRSEVLEVSVEGRQVEEAMLAVLHTVLLHRSTGKFHYKKEGTYSIGTVGTQDVDCDFIDFTYVRVSSEELDRALRKVVGEFKDALRNSGGDGLGQMSLEFYQKKKSRWPFSDECIPWEVWTVKVHVVALATEQERQICREKVGEKLCEKIINIVEVMNRHEYLPKMPTQSEVDNVFDTGLRDVQPYLYKISFQITDALGTSVTTTMRRLIKDTLAL
In the case of B5, in assay [5], the binding entry is given as “binds”.
